Assay results: the supplement of paper PMC11417369
± gives the standard deviation of the averaged measurements. The list shows a part of the results.

test system: PfAP2-G AP2 domain (GST-tagged); assay: gcPBM binding intensity (ln(normalized median fluorescence intensity)); higher = stronger DNA binding
Outline: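 Probes on an Agilent 4 × 180k array were primer-extended, double-stranded and 36 bp long, taken from intergenic genomic regions, with negative controls added. GST-tagged P. falciparum DNA-binding domains from E. coli, about 25 μg on average, were applied to the array for 1 h in 1× PBS containing 1% milk, 0.2 mg/ml BSA, 0.5% salmon testes DNA and 0.03% Triton X-100. Binding intensity, obtained after Alexa488 anti-GST antibody detection and a 488 nm scan, is the highest Masliner-normalised natural-log median intensity across replicate spots of either probe orientation.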

| Sequence | gcPBM binding intensity (ln) |
| --- | --- |
| TTTTTTATTTAAAGTAGTACTTTTTAGAAAACAAAA [XGTACX_site6759] | 11.3 ± 0.87 |
| ATTCTAAATATGTATATACACACTTTTAATATTCAT [CACACA_site4118] | 10.1 ± 0.035 |
| AAAAAAATTTTAAAATGTACAAATTTTAATATATAT [XGTACX_site7628] | 10.7 ± 0.33 |
| TTTTCAAAAATATACACACACATAAATATATGTATA [CACACA_site777] | 9.9 ± 0.099 |
| AAATATTTATATGTTACACACTGTTTATAATTTTCT [CACACA_site4868] | 9.83 ± 0.18 |
| AATTATGCACAAATCACACATATAAAATAAAAAGTG [CACACA_site4474] | 10.4 ± 0.29 |
| CAATGTATTTAGAATACATGCATATTTTCATAATGT [TGCATGCA_site221] | 9.89 ± 0.16 |
| AAAAAAAAAAAACACACACACACAAATACATACACA [CACACA_site706] | 10.2 ± 0.23 |
| AAATCCATATAGGATTGTACATATATTATATATATA [XGTACX_site8818] | 10.7 ± 0.52 |
| CAAAATGTTAAAGATACACACCTAACAAACACAAAA [CACACA_site4685] | 10.4 ± 0.28 |
| AATTCTTTACTATTCACACATATAAATATTCACTTT [CACACA_site4886] | 9.93 ± 0.18 |
| ACATATATATTTATATGTACATATATTTATATATAT [XGTACX_site7469] | 11.2 ± 0.83 |
| AAAAATATTTAAAATACACACATATCTATAATATAT [CACACA_site7032] | 9.835 ± 0.049 |
| GTGGTATAAATTTTATGTACTTAATAACTCATTAAT [XGTACX_site5555] | 11.3 ± 0.84 |
| ATATAGTTTCACATGTGTACATAAAAATACACTTGT [XGTACX_site3339] | 11.5 ± 1 |
| ACAAAAATGAGATGGTGTACGCACAAATAAATAATA [XGTACX_site5221] | 11.7 ± 0.79 |
| TTTAATTTATATAATGATATTAAGTTGGTTATTAGG [CACACA_negctrl_site329] | 9.84 ± 0.18 |
| AAAATATTTCTTCTTTGTACTTATATATATTTAATT [XGTACX_site5446] | 11.3 ± 0.77 |
| TATTCATATTCCAAGTGTACACATAAATCCCTAATA [XGTACX_site4131] | 11.5 ± 0.9 |
| CATCCAAAAATATTATGTACTAAATTTGGATGTATT [XGTACX_site3954] | 10.9 ± 0.61 |
| TATAAAATTATGTGTACACAAATATAACTTTTCTTT [CACACA_site5554] | 11.7 ± 0.95 |
| AAATAATATCATAAATGTACATATATCATATTATTA [XGTACX_site5372] | 10.8 ± 0.55 |

| Sequence | gcPBM binding intensity (ln) |
| --- | --- |
| TACTTACCTATAATAACACACAAGAAAAAAATAAAA [CACACA_site6616] | 10.1 ± 0.37 |
| TATGCTTCAAAATTGTGTACATATATAATATATTAT [XGTACX_site6760] | 11.4 ± 0.76 |
| ATAATAACTTGTAAGGTGCATTTTATGTTTTCTTAA | 10.1 ± 0.3 |
| AGAAATAATATTATTCAAGTATTTATTTAATTTTCA [GTGCAC_negctrl_site475] | 9.5 ± 0.24 |
| CTCATCCTTACATACACACACATATATTTATTTATA [CACACA_site6202] | 10.17 ± 0.071 |
| AAATTATAGAATCATTGTACTTTTTTTTTTTTTTTT [XGTACX_site1280] | 11.5 ± 0.79 |
| CAAATATATATTTATTGTACATATTGTTTATATGGT [XGTACX_site5246] | 11 ± 0.61 |
| TTAATAATTATAACATGTACATACACTAAATTTTTT [XGTACX_site8953] | 11.3 ± 0.73 |
| AATGTATATAGAAACATGCACACGTGGTTGTATATA [CACACA_site3278] | 10.32 ± 0.042 |
| TTGTGTTAACTACCATGTACTTATACATCATAGGAA [XGTACX_site6627] | 11 ± 0.64 |
| TCCTACATATAAAAATGTACCCATTGTTTTTTTTTT [XGTACX_site7205] | 11.1 ± 0.64 |
| TATATATATATATATACACACATATACATATTGTTT [CACACA_site3499] | 10.2 ± 0.57 |
| TTTTTGTATGCTTCCCGATTACATTATGTTGTAAAT [CACACA_negctrl_site227] | 10.12 ± 0.014 |
| ATTTATGTTATATATACACACACAAAAGAAAAAAAA [CACACA_site8977] | 10.2 ± 0.37 |
| ATATCCGTTCAAAGATGTACATATATATTCTATAGA [XGTACX_site5354] | 11.3 ± 0.57 |
| AATGCAAATAATAAAACACACAAAAAAAAGAAAAAA [CACACA_site1184] | 9.86 ± 0.028 |
| TCATACAAACCTATTTGTACATAAGTATAATATATA [XGTACX_site4284] | 10.7 ± 0.49 |
| ATACATATAAAAAAGTGTACATATTAAAATAAGTAT [XGTACX_site1310] | 11.6 ± 1.1 |
| TTTTTTATAAATCAAATGAAAAATAAACTATTCAGA [CACACA_negctrl_site1568] | 9.85 ± 0.23 |
| ATAATATAAACATACACACACACATCTATATTTATA [CACACA_site7381] | 9.945 ± 0.021 |
| TTATGTTATATAAAAAGTACAAATTTTTTTTAATTA [XGTACX_site3435] | 11.1 ± 0.83 |
| ATTATTATTATATATGCATGTAAAATATTAAAGTAC [TGCATGCA_site914] | 10.5 ± 0.45 |
